# Results taken from PubChem BioAssay (Tox21).
# The inconclusive results got no clear call from the source; some entries with a clear call stand among them for comparison. For some assays here: No potency is given beside an inconclusive call; the fits are too rough. Calls of active or inactive are those of the source. Unless noted, the call rests on the fitted dose curve; in most records, active means well fitted curve in the direction sought with a large enough effect in the repeat runs; inconclusive means weak or mixed curves; inactive means no such curve, though single readings can be large; an effect the other way counts as inactive or inconclusive.
# How the values were obtained:
# [1] = qHTS assay to identify small molecule agonists of the estrogen receptor beta (ER-beta) signaling pathway - cell viability counter screen (AID 1259380); settings: ER-beta-bla HEK293T viability, CellTiter-Glo luminescence, 16 h; series mostly up to 92.4 µM; further: nearly all actives have a fitted effect of over 30% in size; further: potency means the concentration at half of the fitted maximal effect
# Summary of the method: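 Luminescence read-out (CellTiter-Glo, 30 min, room temp) taken in the same wells as the beta-lactamase reporter assay; ER-beta-UAS-bla HEK293T cells exposed to DMSO-dissolved compounds for 16 hr at 37C in 2% charcoal-stripped FBS medium.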
# [2] = qHTS assay to identify small molecule agonists or antagonists of the thyroid stimulating hormone receptor (TSHR) signaling pathway - wild type cell line counter screen (AID 1259384; calls by dose curve; further: on the % scale 0 is the no-effect control and ±100 the full control effect); settings: HEK293 wild type, cAMP HTRF counter-screen; cAMP activity change: at 92.4 µM (top of the series), active compounds read high unless noted
# Summary of the method: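 Wild-type HEK293 cells were plated 18 h at 37 C/5% CO2, pin-dosed with compound plus Ro20-1724 medium, held 30 min at room temperature, then given cAMP-d2 and anti-cAMP-cryptate; fluorescence was read after 1 h. Fifteen concentrations, triplicate.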
# [3] = molecular target: Progesterone receptor (Homo sapiens) (UniProt P06401); assay: qHTS assay to identify small molecule agonists of the progesterone receptor (PR) signaling pathway (AID 1346784; calls by dose curve; further: potency means the concentration at half of the fitted maximal effect; on activation: on the % scale 0 is the no-effect control and ±100 the full control effect; on all read-outs here: nearly all actives have a fitted effect of over 30% in size); settings: PR-UAS-bla HEK293T, beta-lactamase FRET ratio, 16 h; for Potency: activation: at 92.4 µM (top of the series) unless noted
# Summary of the method: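 Using charcoal-stripped serum (2%) to limit endogenous steroids, PR-UAS-bla HEK 293T cells received compounds for 16 hr at 37C after 6 hr plating; beta-lactamase FRET fluorescence was recorded following 2 hr substrate loading at room temperature.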
# [4] = molecular target: Thyrotropin receptor (Homo sapiens) (UniProt P16473); assay: qHTS assay to identify small molecule antagonists of the thyroid stimulating hormone receptor (TSHR) signaling pathway (AID 1259385; calls by dose curve; further: on the % scale 0 is the no-effect control and ±100 the full control effect; nearly all actives have a fitted effect of over 20% in size); settings: TSHR-HEK293 cAMP HTRF, TSH-stimulated antagonist mode; activity change, negative = inhibition: at 92.4 µM (top of the series) unless noted
# Summary of the method: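 TSHR-HEK293 cells were plated and held 18 h at 37C/5% CO2, then given compound plus Ro20-1724 and stimulated with TSH at 1.5 ng/mL final. After 30 min at room temperature, cAMP was detected with cAMP-d2/anti-cAMP-cryptate (1 h) by fluorescence.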
# [5] = qHTS assay to identify small molecule antagonists of the estrogen receptor beta (ER-beta) signaling pathway - cell viability counter screen (AID 1259382); settings: ER-beta-UAS-bla HEK293T viability, CellTiter-Glo luminescence, 16 h; series mostly up to 92.4 µM; further: potency means the concentration at half of the fitted maximal effect; nearly all actives have a fitted effect of over 55% in size
# Summary of the method: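 Luminescent ATP read-out (CellTiter-Glo, 30 min, RT) taken in the same wells as the bla reporter assay. HEK293T ER-beta-UAS-bla cells in 2% charcoal-stripped FBS were exposed to compounds with 1nM E2 for 16 hr at 37C.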
# [6] = qHTS assay to identify small molecule agonists of the estrogen receptor alpha (ER-alpha) signaling pathway in the presence of an antagonist - cell viability counter screen (AID 1259386); settings: VM7Luc4E2 viability, CellTiter-Fluor fluorescence, 22 h; series mostly up to 92.4 µM;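 further: potency means the concentration at half of the fitted maximal effect; cells exposed to compounds for 22 h at 37 °C before the viability read; nearly all actives have a fitted effect of over 30% in size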
# Summary of the method: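 Read-out: CellTiter-Fluor fluorescence after 1hr reagent incubation, measured in the same wells as the luciferase readout. VM7Luc4E2 cells were exposed to 15 compound concentrations with 10.0nM ICI-182,780 for 22hr at 37C.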
# [7] = molecular target: Androgen receptor (Homo sapiens) (UniProt P10275); assay: qHTS assay to identify small molecule agonists of the androgen receptor (AR) signaling pathway in the presence of an antagonist (AID 1259381; calls by dose curve; further: potency means the concentration at half of the fitted maximal effect; nearly all actives have a fitted effect of over 15% in size); settings: MDA-kb2 MMTV-luciferase, AR agonist + nilutamide, 16 h
# Summary of the method: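 Luciferase read-out (ONE-Glo, 30min room temperature) in MDA-kb2 MMTV-reporter cells; agonist mode run in presence of AR antagonist nilutamide, 3.0uM final. Compounds tested as 15-point series, 16hr exposure at 37C, 0% CO2.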
# Tags describe the fitted curve by direction and shape or compound fluorescence and quenching.
# UniProt P06401, sequence (P06401 whole entry, looked up): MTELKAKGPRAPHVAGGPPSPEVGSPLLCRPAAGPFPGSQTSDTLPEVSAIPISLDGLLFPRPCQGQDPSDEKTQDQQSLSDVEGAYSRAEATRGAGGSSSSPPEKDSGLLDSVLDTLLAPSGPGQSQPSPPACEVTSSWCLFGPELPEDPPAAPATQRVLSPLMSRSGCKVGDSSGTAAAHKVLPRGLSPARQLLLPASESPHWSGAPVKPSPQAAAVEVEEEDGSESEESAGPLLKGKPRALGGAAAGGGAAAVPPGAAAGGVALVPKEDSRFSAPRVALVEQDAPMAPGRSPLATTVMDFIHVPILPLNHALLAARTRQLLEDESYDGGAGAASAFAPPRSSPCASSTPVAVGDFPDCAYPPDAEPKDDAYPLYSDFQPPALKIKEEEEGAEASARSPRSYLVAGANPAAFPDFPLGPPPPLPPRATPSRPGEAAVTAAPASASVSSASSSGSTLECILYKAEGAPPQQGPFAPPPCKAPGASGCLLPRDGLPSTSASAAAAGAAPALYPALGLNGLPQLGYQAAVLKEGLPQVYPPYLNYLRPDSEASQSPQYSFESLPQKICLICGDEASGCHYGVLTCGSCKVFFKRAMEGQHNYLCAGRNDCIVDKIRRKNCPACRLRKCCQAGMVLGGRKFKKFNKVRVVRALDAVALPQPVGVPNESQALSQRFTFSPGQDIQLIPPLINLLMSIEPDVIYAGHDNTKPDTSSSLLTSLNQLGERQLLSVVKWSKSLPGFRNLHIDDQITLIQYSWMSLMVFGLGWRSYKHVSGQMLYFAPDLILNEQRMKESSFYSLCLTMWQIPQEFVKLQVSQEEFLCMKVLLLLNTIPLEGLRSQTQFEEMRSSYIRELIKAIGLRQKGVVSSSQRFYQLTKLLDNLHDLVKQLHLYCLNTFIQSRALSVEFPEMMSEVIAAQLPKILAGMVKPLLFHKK
# UniProt P10275, sequence (P10275 whole entry, looked up): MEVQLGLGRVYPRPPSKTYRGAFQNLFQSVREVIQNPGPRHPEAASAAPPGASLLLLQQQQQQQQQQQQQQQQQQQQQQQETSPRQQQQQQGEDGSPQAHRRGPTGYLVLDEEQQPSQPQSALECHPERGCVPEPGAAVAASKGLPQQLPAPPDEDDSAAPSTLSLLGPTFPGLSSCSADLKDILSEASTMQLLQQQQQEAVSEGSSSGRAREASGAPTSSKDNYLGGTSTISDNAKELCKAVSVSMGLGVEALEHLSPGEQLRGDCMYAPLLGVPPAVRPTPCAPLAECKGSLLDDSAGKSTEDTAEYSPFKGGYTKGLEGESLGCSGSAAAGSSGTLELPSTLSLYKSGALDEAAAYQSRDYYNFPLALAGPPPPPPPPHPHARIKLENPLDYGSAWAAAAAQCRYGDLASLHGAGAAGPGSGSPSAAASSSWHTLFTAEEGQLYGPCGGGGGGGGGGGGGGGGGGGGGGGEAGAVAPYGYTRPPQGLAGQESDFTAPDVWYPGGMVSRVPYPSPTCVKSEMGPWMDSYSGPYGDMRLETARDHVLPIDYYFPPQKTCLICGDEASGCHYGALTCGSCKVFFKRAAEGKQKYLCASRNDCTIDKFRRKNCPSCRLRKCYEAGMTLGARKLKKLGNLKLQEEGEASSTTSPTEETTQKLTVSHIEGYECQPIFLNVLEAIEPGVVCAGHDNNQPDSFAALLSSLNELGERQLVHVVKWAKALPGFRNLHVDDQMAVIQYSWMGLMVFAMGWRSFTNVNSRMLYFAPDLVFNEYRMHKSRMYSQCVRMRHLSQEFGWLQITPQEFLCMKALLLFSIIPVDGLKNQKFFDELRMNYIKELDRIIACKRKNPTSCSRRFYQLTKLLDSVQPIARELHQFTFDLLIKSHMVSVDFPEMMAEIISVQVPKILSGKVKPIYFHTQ
# UniProt P16473, sequence (P16473 whole entry, looked up): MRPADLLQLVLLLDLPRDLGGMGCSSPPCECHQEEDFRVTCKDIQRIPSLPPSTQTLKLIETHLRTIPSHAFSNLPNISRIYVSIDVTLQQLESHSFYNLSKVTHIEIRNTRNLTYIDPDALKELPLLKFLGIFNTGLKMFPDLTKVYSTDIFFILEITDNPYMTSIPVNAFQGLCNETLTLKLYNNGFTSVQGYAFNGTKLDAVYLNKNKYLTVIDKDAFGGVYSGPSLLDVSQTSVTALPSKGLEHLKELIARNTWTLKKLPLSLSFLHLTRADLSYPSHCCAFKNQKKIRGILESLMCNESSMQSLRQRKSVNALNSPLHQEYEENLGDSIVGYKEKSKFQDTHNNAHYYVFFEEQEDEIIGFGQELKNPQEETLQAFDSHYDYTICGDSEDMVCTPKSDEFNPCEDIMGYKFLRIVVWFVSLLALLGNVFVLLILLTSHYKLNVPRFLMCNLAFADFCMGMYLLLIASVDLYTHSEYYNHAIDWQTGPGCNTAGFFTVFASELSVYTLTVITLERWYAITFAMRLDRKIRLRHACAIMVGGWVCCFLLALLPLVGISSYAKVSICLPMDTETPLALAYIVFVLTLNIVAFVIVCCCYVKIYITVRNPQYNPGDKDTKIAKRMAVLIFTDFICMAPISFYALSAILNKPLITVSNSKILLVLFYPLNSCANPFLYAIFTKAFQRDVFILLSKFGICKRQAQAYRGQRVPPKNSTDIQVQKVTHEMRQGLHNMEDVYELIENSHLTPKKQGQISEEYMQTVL
compound,measurement,setting,value
CCCCCCCCCO,Potency,[1],"inconclusive [rising, single point]"
same,Potency,[2],inactive
CCOc1ncc(F)c(=O)[nH]1,Potency,[1],inactive
same,Potency,[3],inactive
O=S(=O)(Cl)c1c(Cl)cccc1Cl,Potency,[1],inactive
same,Potency,[4],inactive
CCCCCC=CCC=CCCCCCCCC(=O)OCC,Potency,[1],active: 29.8 µM
same,Potency,[3],"inconclusive [rising, partial curve, poor fit]"
CCCCC(CC)COCCCN (configuration not stated),Potency,[1],"inconclusive [cytotoxic, partial curve]"
same,Potency,[5],"inconclusive [cytotoxic, single point]"
same,Potency,[6],"inconclusive [cytotoxic, partial curve, poor fit]"
O=C(c1ccc(F)cc1)C1CCN(CCn2c(=O)[nH]c3ccccc3c2=O)CC1,Potency,[1],"inconclusive [cytotoxic, full curve]"
same,Potency,[5],"inconclusive [cytotoxic, full curve, poor fit]"
same,Potency,[3],inactive
CCCCC1(COC(=O)CCC(=O)O)C(=O)N(c2ccccc2)N(c2ccccc2)C1=O,Potency,[7],"inconclusive [rising, partial curve]"
Nc1ccc(F)cc1,Potency,[7],"inconclusive [rising, partial curve]"
Cc1ccc([N+](=O)[O-])c(C)c1,activation,[3]; at 92.4 µM (top of the series),inactive: -2.29%
